In experiment [1] the target is T1, recombinant human CD47 protein (human, UniProt Q08722 in part).
T1 construct: Bought protein; also called human recombinant CD47 protein; CD47 recombinant protein
In words: ELISA on coated recombinant human CD47, 1/5 dilutions from 50 nM (FIG. 9C). The method, then:
(§1) The binding of binding agents comprising anti-PD-1 and -CD47 antigen binding domain to recombinant human or cynomolgous PD-1 (Cedarlane, Cat. No. HPLC-10377-H08H-100) or recombinant human or cynomolgous CD47 (Cedarlane, Cat. No. 12283-H08H-200 and 90869-C08H) was assessed by ELISA (FIG. 9A, FIG. 9B, FIG. 9C, FIG. 9D, FIG. 22, FIG. 23). […] The monoclonal anti-CD47 antibody (clone B6H12) was used as a positive control in CD47 binding assays (Biolegend, Cat. No. 401401).
(§2) Briefly, recombinant proteins were coated on 96-well plates. Plates were covered and left at 4° C. overnight. The next day, plates were washed once with PBS and blocked with blocking buffer for 1 hour at room temperature. Binding agents were tested at the indicated concentration, diluted in the blocking buffer, and incubated for 1 hour at 37° C. After incubation, plates were washed three times with washing buffer. Plates were incubated with anti-human-Fc-HRP (Sigma-Aldrich, Cat. No. APi 13P) diluted at 1:5000 for 1 hour at room temperature, then washed three times with PBS-T washing buffer. The signal was developed with SuperSignal™ ELISA Pico Chemiluminescent Substrate (Thermofisher, Cat. No. 37069). The plates were read on a SpectraMax™ i3x Multi-Mode Microplate Reader (Molecular Devices).
(In an ELISA, binding on a coated surface is turned into a signal by an enzyme label.)

In experiment [2] the target is T2, human CD47 on cells (HEK293T cells; primary human T cells and other blood cells) (human, UniProt Q08722).
T2 construct: whole, on cells
The experiment can be described thus: Flow cytometry on primary human T cells (FIG. 14). A general note: In flow cytometry, cells or beads pass a laser one at a time.

For experiment [3], the target named is T2, human CD47 on cells (HEK293T cells; …). The experiment can be described thus: Flow cytometry on HEK293T against HEK293T-CD47KO cells (FIG. 13).
Experiment [4] deals with T3, recombinant human PD-1 protein (human, UniProt Q15116 in part).
T3 construct: Bought protein; also called human recombinant PD1 protein; PD-1 recombinant protein
T3 sequence (Q15116 25-167 limits assumed): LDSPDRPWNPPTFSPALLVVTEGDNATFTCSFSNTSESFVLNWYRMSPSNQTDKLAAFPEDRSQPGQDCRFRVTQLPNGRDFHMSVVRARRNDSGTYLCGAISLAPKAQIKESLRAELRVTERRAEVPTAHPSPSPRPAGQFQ
The experiment can be described thus: ELISA on recombinant human PD-1, stressed against unstressed batches (FIG. 25B, FIG. 26B). The procedure:
as §1, §2

The target of experiment [5] is T1, recombinant human CD47 protein. The experiment can be described thus: ELISA on recombinant human CD47, stressed against unstressed batches (FIG. 25C, FIG. 26C). The method, then: as §1, §2
Experiment [6] has the same target. The experiment can be described thus: ELISA on coated recombinant human CD47. The method, then: as §1, §2

B1: KC015 (CD47-specific binding agent, VHH-hinge-CH2-CH3) (Fc fusion)
chain: QVQLQESGGGLVQPGGSLRLSCAASRFDFSVNDIRWYRQAPGNERELVARITGGGRTDYADSVKGRFTISRDNAKNTVYLQMNNLKPEDTAVYYCWGRGYWGQGTQVTVSS[letters of human IgG1 Fc left out]
notes: VHH KC010 fused to human IgG1 hinge-CH2-CH3; expressed as dimer; may comprise a His-tag or not
Turning to B1, in experiment [1], the binding result is “binds”.

B2: KC040 (binding agent comprising anti-D2 and anti-CD47 antigen binding domains; DR2; HEWL; CD47) (Fc fusion)
chain: QVQLQESGGGLVQAGGSLRLSCAASEIIFSITAMNWYRQAPGKQRELVAGISSSGKITYQDSVKGRFTISKDNAKNTLYLQMNSLKPEDTAVYYCNTWAGARDAIWGQGTQVTVSS[letters of human IgG1 Fc left out]APAPAPAPAPKADVQLVESGGGSVQAGGSLRLSCAASGSTDSIEYMTWFRQAPGKAREGVAALYTHTGNTYYTDSVKGRFTISQDKAKNMAYLRMDSVKSEDTAIYTCGATRKYVPVRFALDQSSYDYWGQGTQVTVSSGGGGSGGGGSGGGGSQVQLQESGGGLVQPGGSLRLSCAASRFDFSVNDIRWYRQAPGNERELVARITGGGRTDYADSVKGRFTISRDNAKNTVYLQMNNLKPEDTAVYYCWGRGYWGQGTQVTVSS
notes: KC001 VHH - IgG1 hinge-CH2-CH3 - rigid linker - anti-HEWL VHH - (G4S)3 - KC010 anti-CD47 VHH; expressed as dimer; may comprise a His-tag or not
As for B2, in experiment [2], the binding result is given as “binds”.

B3: KC020 (trispecific binding agent: anti-D2, anti-PD-1 and anti-CD47 antigen binding domains) (Fc fusion)
chain: QVQLQESGGGLVQAGGSLRLSCAASEIIFSITAMNWYRQAPGKQRELVAGISSSGKITYQDSVKGRFTISKDNAKNTLYLQMNSLKPEDTAVYYCNTWAGARDAIWGQGTQVTVSS[letters of human IgG1 Fc left out]APAPAPAPAPKAQVQLQESGGGWVQPGGSLRLSCVASGFTFSRSSMSWHRQAPGKERDLVAIISSSGIITHYSDSVKGRFTISRDNAKDTVYLQMNSLKPEDTAVYVCNAVLDDDSGDYWGQGTQVTVSSGGGGSGGGGSGGGGSQVQLQESGGGLVQPGGSLRLSCAASRFDFSVNDIRWYRQAPGNERELVARITGGGRTDYADSVKGRFTISRDNAKNTVYLQMNNLKPEDTAVYYCWGRGYWGQGTQVTVSS
notes: KC001 VHH - IgG1 hinge-CH2-CH3 - rigid linker - KC009 VHH - (G4S)3 - KC010 VHH; dimer of two identical chains; may comprise a His-tag or not
For B3, the binding result in experiment [3], in experiment [4] and in experiment [5] was “binds” each time.

B4: KC016 (HEWL-specific negative control, VHH-hinge-CH2-CH3) (Fc fusion)
chain: DVQLVESGGGSVQAGGSLRLSCAASGSTDSIEYMTWFRQAPGKAREGVAALYTHTGNTYYTDSVKGRFTISQDKAKNMAYLRMDSVKSEDTAIYTCGATRKYVPVRFALDQSSYDYWGQGTQVTVSS[letters of human IgG1 Fc left out]
notes: Anti-HEWL VHH fused to human IgG1 hinge-CH2-CH3; negative control for KC015
B4: the binding result in experiment [6] is “no binding”.

The values above are taken from patent publication US20240166739A1 (KISOJI BIOTECHNOLOGY, published 2024).
